# ± gives the standard deviation of the averaged measurements. In all, about 33,000 sequences were measured (“E-score (dimensionless, -0.5 to 0.5)”: median about -0.046, highest 2% from about 0.36 on). The list shows a part of the results.
# Tested on: T1, SpTbr T-box DNA-binding domain (GST fusion)
# T1 sequence: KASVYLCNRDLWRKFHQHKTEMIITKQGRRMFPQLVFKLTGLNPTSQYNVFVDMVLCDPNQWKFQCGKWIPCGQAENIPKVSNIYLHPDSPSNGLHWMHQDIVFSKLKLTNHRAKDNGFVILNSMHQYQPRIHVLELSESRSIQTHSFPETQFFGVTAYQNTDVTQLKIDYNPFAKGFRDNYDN
# Experiment: PBM E-score of 8-mer (E-score (dimensionless, -0.5 to 0.5)); Tbr is Tbrain of the sea star Patiria miniata (Pm) or the sea urchin Strongylocentrotus purpuratus (Sp); higher = stronger binding preference; most listed sequences are background and not binding sites
# Details: the construct has about 5 more residues each side
# In short: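 Expression of GST-fused Tbr T-box DNA-binding domains, each holding the full T-box plus roughly five flanking residues, was carried out in BL21 E. coli at 20 °C, with purification by glutathione affinity chromatography. Universal Agilent arrays made double-stranded by primer extension were incubated with the protein at 200 nM in PBS (pH 7.5), then scanned and quantified. All ungapped 8-mers were scored from probe intensities, and each received an enrichment E-score from the Universal PBM Analysis Suite, averaged over duplicate arrays.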
row,Sequence,PBM E-score of 8-mer
1,CAGGAGCA,-0.0537 ± 0.046
2,GCGGCCGA,-0.0844 ± 0.089
3,CATCGTCC,-0.187 ± 0.054
4,AAGACTGC,-0.263 ± 0.072
5,ACACAGCA,0.139 ± 0.047
6,AGCGACTG,-0.0432 ± 0.038
7,TAAATAGA,-0.135 ± 0.059
8,AACAGACA,0.141 ± 0.048
9,AGATGCAA,-0.169 ± 0.014
10,AACAGCAG,-0.0147 ± 0.058
11,CAATTCCG,0.0175 ± 0.024
12,GACAGACC,-0.0415 ± 0.052
13,ATCACGAC,0.143 ± 0.0053
14,CTGATCAG,-0.0725 ± 0.036
15,AACAATAG,0.135 ± 0.028
16,GCACTTGA,0.139 ± 0.048
17,CGTATCAA,-0.181 ± 0.0039
18,AGATTCTC,0.0437 ± 0.07
19,ATGCGCTC,-0.175 ± 0.02
20,ACACCTTA,0.46892 ± 0.00038
21,TGATTCCA,-0.179 ± 0.0044
22,ACATAAGA,-0.0442 ± 0.051
23,ATTGTCGA,0.0605 ± 0.042
24,AATGCAGG,-0.198 ± 0.014
25,CACATGTC,0.22 ± 0.006

row,Sequence,PBM E-score of 8-mer
1,AGTGCGCA,0.116 ± 0.024
2,CAGGAGCC,-0.179 ± 0.092
3,ACTACGAT,-0.1 ± 0.065
4,ATGCGCCG,-0.097 ± 0.046
5,AGGTTGGC,0.208 ± 0.0032
6,GTGGCACA,0.243 ± 0.021
7,AGTGTACC,-0.101 ± 0.0028
8,CCGATGAA,-0.0503 ± 0.074
9,TAGCCCGA,-0.2 ± 0.047
10,GCCGGCGC,0.0705 ± 0.11
11,CTGGTTCC,-0.0214 ± 0.056
12,CTTTTTTC,-0.0265 ± 0.039
13,AGAGTCCT,-0.356 ± 0.0085
14,GATCCTGC,-0.119 ± 0.056
15,CCCGAAGC,-0.0491 ± 0.043
16,TACTGCCA,-0.141 ± 0.0086
17,CACTTATG,0.252 ± 0.04
18,GACCCAGA,0.00365 ± 0.028
19,ATTAAAAC,-0.0783 ± 0.021
20,GCGCCAAC,0.29128 ± 2.8e-05
21,CGCGGGAG,0.118 ± 0.032
22,TCTTCTCA,0.24 ± 0.054
23,ACCAGAGT,0.0612 ± 0.0065
24,ACGTGTAT,-0.0813 ± 0.062
25,AACACTAG,0.222 ± 0.049

row,Sequence,PBM E-score of 8-mer
1,ATACGGCA,-0.155 ± 0.032
2,CCGCGCTA,0.0742 ± 0.032
3,ATCCTCTG,-0.0353 ± 0.06
4,AATTGCAT,-0.192 ± 0.026
5,CTAGATAA,-0.00975 ± 0.025
6,CGAAGTAA,-0.0537 ± 0.025
7,GCGATACA,0.0906 ± 0.064
8,ATGGCCCC,0.00571 ± 0.033
9,ACATCTGA,0.161 ± 0.014
10,ATATCAAT,0.0685 ± 0.019
11,CAGAATTA,-0.127 ± 0.015
12,CAGTGGCA,0.143 ± 0.018
13,AGGGATGA,-0.19 ± 0.015
14,ACAAATGT,0.0937 ± 0.0053
15,CAGCAAGG,0.0184 ± 0.0096
16,GAGGAAGA,-0.0625 ± 0.058
17,GTTCCATA,-0.232 ± 0.039
18,ATACTAGA,-0.222 ± 0.11
19,TTCCAAAA,-0.248 ± 0.0056
20,CGCGGGTA,0.188 ± 0.025
21,AACGACTG,0.155 ± 0.022
22,AGCTGCAT,-0.228 ± 0.0081
23,CACCTACG,0.373 ± 0.0055
24,AAATTTCC,-0.135 ± 0.047
25,AGTAGGAT,-0.131 ± 0.024

row,Sequence,PBM E-score of 8-mer
1,ATGAGTTA,-0.0921 ± 0.15
2,CGAAAGCA,-0.0577 ± 0.061
3,GACTTCTC,0.163 ± 0.07
4,CATTGTCA,0.241 ± 0.051
5,ATAGGGTC,-0.364 ± 0.013
6,AGGTAGAC,-0.172 ± 0.046
7,CCAACCCC,-0.0509 ± 0.025
8,ACCATTAC,0.034 ± 0.032
9,CAACGTGG,0.0121 ± 0.0092
10,TGCACCCA,-0.00634 ± 0.056
11,ATTCACTA,0.0946 ± 0.053
12,GAGCGGAC,-0.31 ± 0.035
13,TATATCGA,0.0169 ± 0.0051
14,CTCGCGTA,0.152 ± 0.079
15,GATGTGGC,0.117 ± 0.068
16,GTGTACCA,0.0514 ± 0.027
17,CCAGGACC,-0.192 ± 0.12
18,CGTAAGAC,-0.272 ± 0.02
19,GCGTCCCA,-0.0882 ± 0.007
20,AAAGCCCT,-0.241 ± 0.028
21,TAGTATAA,0.0568 ± 0.034
22,ATCTGGGG,-0.0234 ± 0.03
23,TGAAACAA,0.0829 ± 0.046
24,TACGCAGA,-0.00736 ± 0.075
25,AACCTCCG,0.0095 ± 0.07

row,Sequence,PBM E-score of 8-mer
1,CGAGGCCC,-0.215 ± 0.083
2,GGACAACC,-0.108 ± 0.014
3,ATCCATGC,-0.0894 ± 0.017
4,CCAACGTA,-0.159 ± 0.018
5,CCCTGAGA,-0.19 ± 0.036
6,ACTGTGCC,-0.00825 ± 0.032
7,AAGATCCG,-0.156 ± 0.012
8,GGTTTAGA,-0.183 ± 0.04
9,CTAACGAC,0.11 ± 0.04
10,CGCTAAGC,0.106 ± 0.008
11,AGGACTGA,0.0358 ± 0.0096
12,AGTCATTA,0.0628 ± 0.02
13,ACAGAGAC,-0.0676 ± 0.02
14,ACACTCGC,0.329 ± 0.0045
15,CGGTGGTA,-0.00129 ± 0.12
16,GTAGGTCA,-0.0957 ± 0.058
17,GAGTTGGA,-0.0967 ± 0.023
18,GACATCCA,8e-05 ± 0.027
19,GCCAATCA,-0.107 ± 0.03
20,GAGGCAGC,-0.122 ± 0.061
21,ACCTGCAC,0.135 ± 0.035
22,CATATCGC,0.145 ± 0.013
23,GGGGGAAC,-0.0949 ± 0.015
24,GAAATTGC,-0.1 ± 0.053
25,GGTTACAC,0.241 ± 0.026

row,Sequence,PBM E-score of 8-mer
1,AAACCACG,0.0305 ± 0.046
2,CCCGAGAC,-0.125 ± 0.03
3,ATTTGACG,0.156 ± 0.012
4,CCTCCCTC,-0.165 ± 0.013
5,GCAACTCC,0.234 ± 0.093
6,ATCAGATG,-0.000695 ± 0.0056
7,GAACCCAA,-0.0429 ± 0.035
8,GGATCTCA,-0.049 ± 0.0039
9,CGTGATAC,0.101 ± 0.03
10,AATGCGGC,0.0415 ± 0.0011
11,GTATGGGA,-0.202 ± 0.045
12,ATTGTGCC,-0.00556 ± 0.011
13,CAAAGTCG,-0.141 ± 0.029
14,AGTGGTAG,-0.0036 ± 0.015
15,GCGCGAAC,0.439 ± 0.018
16,ATGGTAGG,0.0199 ± 0.035
17,CAGTACGA,-0.183 ± 0.0036
18,CTAGATTA,-0.0995 ± 0.076
19,ACCGAAAC,-0.177 ± 0.013
20,TCCAACGA,-0.0598 ± 0.029
21,CTTAGGGC,-0.131 ± 0.082
22,AACGGGAT,-0.0959 ± 0.041
23,CTATAAAC,0.0111 ± 0.085
24,CTACGCCC,0.0782 ± 0.051
25,TAGTTCGA,0.0266 ± 0.032

row,Sequence,PBM E-score of 8-mer
1,CCACCAGG,-0.177 ± 0.03
2,AGTAGGGC,-0.176 ± 0.079
3,ACCCTTTG,-0.0807 ± 0.0087
4,CGTTTTAC,-0.0232 ± 0.013
5,GTGAGTAA,0.322 ± 0.01
6,ATTAAATC,-0.101 ± 0.069
7,GTATAATA,-0.213 ± 0.015
8,ATTGATTA,-0.064 ± 0.063
9,ACGTCGCC,-0.0779 ± 0.04
10,ACCGGGGG,-0.234 ± 0.024
11,GTCCTAAA,-0.184 ± 0.013
12,TACAGGCA,0.0297 ± 0.032
13,GTGTACAC,0.242 ± 0.0066
14,AGGGCATA,-0.16 ± 0.053
15,CGTGTTAC,0.308 ± 0.0063
16,GACGTAGA,0.0341 ± 0.018
17,CAATGTAG,-0.0397 ± 0.05
18,AGGTCACC,-0.0256 ± 0.013
19,AGCCAGAG,-0.161 ± 0.047
20,AGATCATG,-0.227 ± 0.0063
21,ACGCCGGG,-0.0203 ± 0.0055
22,ACCCAGCT,-0.0857 ± 0.026

# Reference: the supplement of paper PMC4166925
